# Results taken from the supplement of paper PMC8728848.
# Some of the results follow.
# Legend:
# Assay in all cases: glycan array binding signal (z-score within array); higher = stronger binding
# Conditions in all cases: glycan notation: IUPAC condensed, linker removed
# [1] = molecular target: Neu5Ac(a2-3)Gal(b1-4)GlcNAc(b1-6)GalNAc
# In short: (§1)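 Glycan array binding is given as a within-array Z-score, which can be read as non-binding when negative. The arrays, 3228 of them, came from the Consortium for Functional Glycomics database and were retained only where the protein sequence was available. Z-scores were averaged across arrays of the same protein sequence at different concentrations or buffers and across linkers.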
# [2] = molecular target: Neu5Ac(a2-3)Gal(b1-4)GlcNAc(b1-6)[Gal(b1-3)]GalNAc
# In short: as §1
# [3] = molecular target: Neu5Ac(a2-3)Gal(b1-4)GlcNAc(b1-6)[Neu5Ac(a2-3)Gal(b1-3)]GalNAc
# In short: as §1
# [4] = molecular target: Neu5Ac(a2-3)Gal(b1-4)GlcNAc6S
# In short: as §1
# [5] = molecular target: Neu5Ac(a2-3)Gal(b1-4)[Fuc(a1-3)]GlcNAc
# In short: as §1
# [6] = molecular target: Neu5Ac(a2-3)Gal(b1-4)[Fuc(a1-3)]GlcNAc(b1-2)Man
# In short: as §1
# [7] = molecular target: Neu5Ac(a2-3)Gal(b1-4)[Fuc(a1-3)]GlcNAc(b1-3)Gal
# In short: as §1
# [8] = molecular target: Neu5Ac(a2-3)Gal(b1-4)[Fuc(a1-3)]GlcNAc(b1-3)Gal(b1-4)GlcNAc
# In short: as §1
# [9] = molecular target: Neu5Ac(a2-3)Gal(b1-4)[Fuc(a1-3)]GlcNAc(b1-3)Gal(b1-4)[Fuc(a1-3)]GlcNAc(b1-3)Gal(b1-4)[Fuc(a1-3)]GlcNAc
# In short: as §1
# [10] = molecular target: Neu5Ac(a2-3)Gal(b1-4)[Fuc(a1-3)]GlcNAc(b1-3)GalNAc
# In short: as §1
# [11] = molecular target: Neu5Ac(a2-3)Gal(b1-4)[Fuc(a1-3)]GlcNAc(b1-6)[Gal(b1-3)]GalNAc
# In short: as §1
# [12] = molecular target: Neu5Ac(a2-3)Gal(b1-4)[Fuc(a1-3)]GlcNAc(b1-6)[Neu5Ac(a2-3)Gal(b1-3)]GalNAc
# In short: as §1
# [13] = molecular target: Neu5Ac(a2-3)Gal(b1-4)[Fuc(a1-3)]GlcNAc6S
# In short: as §1
# [14] = molecular target: Neu5Ac(a2-3)Gal6S(b1-4)GlcNAc
# In short: as §1
# [15] = molecular target: Neu5Ac(a2-3)Gal6S(b1-4)[Fuc(a1-3)]GlcNAc
# In short: as §1
# Neu5Ac(a2-3)GalNAc = molecular target: Neu5Ac(a2-3)GalNAc
# In short: as §1
# [16] = molecular target: Neu5Ac(a2-3)GalNAc(b1-4)GlcNAc
# In short: as §1
# [17] = molecular target: Neu5Ac(a2-3)[GalNAc(b1-4)]Gal(b1-4)Glc
# In short: as §1
# [18] = molecular target: Neu5Ac(a2-3)[GalNAc(b1-4)]Gal(b1-4)GlcNAc
# In short: as §1
# [19] = molecular target: Neu5Ac(a2-3)[GalNAc(b1-4)]Gal(b1-4)GlcNAc(b1-3)GalNAc
# In short: as §1
# [20] = molecular target: Neu5Ac(a2-3)[Neu5Ac(a2-6)]GalNAc
# In short: as §1
# Neu5Ac(a2-6)Gal = molecular target: Neu5Ac(a2-6)Gal
# In short: as §1
# [21] = molecular target: Neu5Ac(a2-6)Gal(b1-3)GlcNAc(b1-3)[Gal(b1-4)GlcNAc(b1-6)]Gal(b1-4)Glc
# In short: as §1
# Neu5Ac(a2-6)Gal(b1-4)Glc = molecular target: Neu5Ac(a2-6)Gal(b1-4)Glc
# In short: as §1
# [22] = molecular target: Neu5Ac(a2-6)Gal(b1-4)GlcNAc
# In short: as §1
# [23] = molecular target: Neu5Ac(a2-6)Gal(b1-4)GlcNAc(b1-2)Man
# In short: as §1
# [24] = molecular target: Neu5Ac(a2-6)Gal(b1-4)GlcNAc(b1-2)Man(a1-3)Man(b1-4)GlcNAc(b1-4)GlcNAc
# In short: as §1
# [25] = molecular target: Neu5Ac(a2-6)Gal(b1-4)GlcNAc(b1-2)Man(a1-3)[Gal(b1-4)GlcNAc(b1-2)Man(a1-6)]Man(b1-4)GlcNAc(b1-4)GlcNAc
# In short: as §1
# [26] = molecular target: Neu5Ac(a2-6)Gal(b1-4)GlcNAc(b1-2)Man(a1-3)[GlcNAc(b1-2)Man(a1-6)]Man(b1-4)GlcNAc(b1-4)GlcNAc
# In short: as §1
# [27] = molecular target: Neu5Ac(a2-6)Gal(b1-4)GlcNAc(b1-2)Man(a1-3)[GlcNAc(b1-4)][Neu5Ac(a2-6)Gal(b1-4)GlcNAc(b1-2)Man(a1-6)]Man(b1-4)GlcNAc(b1-4)GlcNAc
# In short: as §1
# [28] = molecular target: Neu5Ac(a2-6)Gal(b1-4)GlcNAc(b1-2)Man(a1-3)[Man(a1-6)]Man(b1-4)GlcNAc(b1-4)GlcNAc
# In short: as §1
# [29] = molecular target: Neu5Ac(a2-6)Gal(b1-4)GlcNAc(b1-2)Man(a1-3)[Neu5Ac(a2-3)Gal(b1-4)GlcNAc(b1-2)Man(a1-6)]Man(b1-4)GlcNAc(b1-4)GlcNAc
# In short: as §1
# [30] = molecular target: Neu5Ac(a2-6)Gal(b1-4)GlcNAc(b1-2)Man(a1-3)[Neu5Ac(a2-6)Gal(b1-4)GlcNAc(b1-2)Man(a1-6)]Man(b1-4)GlcNAc(b1-4)GlcNAc
# In short: as §1
# [31] = molecular target: Neu5Ac(a2-6)Gal(b1-4)GlcNAc(b1-2)Man(a1-3)[Neu5Ac(a2-6)Gal(b1-4)GlcNAc(b1-2)Man(a1-6)]Man(b1-4)GlcNAc(b1-4)[Fuc(a1-6)]GlcNAc
# In short: as §1
# [32] = molecular target: Neu5Ac(a2-6)Gal(b1-4)GlcNAc(b1-2)Man(a1-6)Man(b1-4)GlcNAc(b1-4)GlcNAc
# In short: as §1
# [33] = molecular target: Neu5Ac(a2-6)Gal(b1-4)GlcNAc(b1-2)Man(a1-6)[Gal(b1-4)GlcNAc(b1-2)Man(a1-3)]Man(b1-4)GlcNAc(b1-4)GlcNAc
# In short: as §1
# [34] = molecular target: Neu5Ac(a2-6)Gal(b1-4)GlcNAc(b1-2)Man(a1-6)[GlcNAc(b1-2)Man(a1-3)]Man(b1-4)GlcNAc(b1-4)GlcNAc
# In short: as §1
# [35] = molecular target: Neu5Ac(a2-6)Gal(b1-4)GlcNAc(b1-2)Man(a1-6)[Man(a1-3)]Man(b1-4)GlcNAc(b1-4)GlcNAc
# In short: as §1
# [36] = molecular target: Neu5Ac(a2-6)Gal(b1-4)GlcNAc(b1-2)[Neu5Ac(a2-6)Gal(b1-4)GlcNAc(b1-4)]Man(a1-3)[GlcNAc(b1-4)][Neu5Ac(a2-6)Gal(b1-4)GlcNAc(b1-2)[Neu5Ac(a2-6)Gal(b1-4)GlcNAc(b1-6)]Man(a1-6)]Man(b1-4)GlcNAc(b1-4)GlcNAc
# In short: as §1
# [37] = molecular target: Neu5Ac(a2-6)Gal(b1-4)GlcNAc(b1-2)[Neu5Ac(a2-6)Gal(b1-4)GlcNAc(b1-4)]Man(a1-3)[GlcNAc(b1-4)][Neu5Ac(a2-6)Gal(b1-4)GlcNAc(b1-4)Man(a1-6)]Man(b1-4)GlcNAc(b1-4)GlcNAc
# In short: as §1
# [38] = molecular target: Neu5Ac(a2-6)Gal(b1-4)GlcNAc(b1-2)[Neu5Ac(a2-6)Gal(b1-4)GlcNAc(b1-6)]Man(a1-6)[Neu5Ac(a2-6)Gal(b1-4)GlcNAc(b1-2)Man(a1-3)][GlcNAc(b1-4)]Man(b1-4)GlcNAc(b1-4)GlcNAc
# In short: as §1
# [39] = molecular target: Neu5Ac(a2-6)Gal(b1-4)GlcNAc(b1-3)Gal(b1-3)GlcNAc
# In short: as §1
# [40] = molecular target: Neu5Ac(a2-6)Gal(b1-4)GlcNAc(b1-3)Gal(b1-4)GlcNAc
# In short: as §1
# [41] = molecular target: Neu5Ac(a2-6)Gal(b1-4)GlcNAc(b1-3)Gal(b1-4)GlcNAc(b1-2)Man(a1-3)[Neu5Ac(a2-6)Gal(b1-4)GlcNAc(b1-3)Gal(b1-4)GlcNAc(b1-2)Man(a1-6)]GalNAc
# In short: as §1
# [42] = molecular target: Neu5Ac(a2-6)Gal(b1-4)GlcNAc(b1-3)Gal(b1-4)GlcNAc(b1-3)Gal(b1-4)GlcNAc
# In short: as §1
# [43] = molecular target: Neu5Ac(a2-6)Gal(b1-4)GlcNAc(b1-3)Gal(b1-4)GlcNAc(b1-3)Gal(b1-4)GlcNAc(b1-2)Man(a1-3)[Neu5Ac(a2-6)Gal(b1-4)GlcNAc(b1-3)Gal(b1-4)GlcNAc(b1-3)Gal(b1-4)GlcNAc(b1-2)Man(a1-6)]GalNAc
# In short: as §1
binder,measurement,setting,value
Clec49 (Caenorhabditis elegans) (protein) MTRLTLLLFGLLGAATAQTCNTGGIYNEQFNRCYQYFTAPAQFSFAEQQCNLLGGHLASVQNGQENALLQSNAANSFKRSNYSDYWIGATDLETSGTWKWTDPSVTFDYSNWQLGEPQSGSDCAIQDKGDGTWSAIGCTSYRPYVCVTPVIMTATCPPITTPIPTTCPTPAPCPIKQCVPSCDQGWTYFSPTDFCYRVYHGEKFNDAEASCVLLGGHLASIHSLTENTFVNNIASCGIKEGKYEHLAWIGMRKVGQDWVWTDGTPSDYFNWAPKQPDNPKKELCVQTAPDLSHDKWYENWNNLECNEVMRAYICKKASIHN,glycan array binding signal (z-score),[1],-0.469
same,glycan array binding signal (z-score),[2],0.588
same,glycan array binding signal (z-score),[3],-0.785
same,glycan array binding signal (z-score),[4],-0.851
same,glycan array binding signal (z-score),[5],-0.573
same,glycan array binding signal (z-score),[6],-0.257
same,glycan array binding signal (z-score),[7],-0.256
same,glycan array binding signal (z-score),[8],1.33
same,glycan array binding signal (z-score),[9],-0.269
same,glycan array binding signal (z-score),[10],14.5
same,glycan array binding signal (z-score),[11],1.99
same,glycan array binding signal (z-score),[12],0.677
same,glycan array binding signal (z-score),[13],-0.28
same,glycan array binding signal (z-score),[14],-0.253
same,glycan array binding signal (z-score),[15],-0.418
same,glycan array binding signal (z-score),Neu5Ac(a2-3)GalNAc,0.355
same,glycan array binding signal (z-score),[16],-0.261
same,glycan array binding signal (z-score),[17],-0.075
same,glycan array binding signal (z-score),[18],0.026
same,glycan array binding signal (z-score),[19],-0.142
same,glycan array binding signal (z-score),[20],-0.639
same,glycan array binding signal (z-score),Neu5Ac(a2-6)Gal,0.015
same,glycan array binding signal (z-score),[21],-0.806
same,glycan array binding signal (z-score),Neu5Ac(a2-6)Gal(b1-4)Glc,-0.317
same,glycan array binding signal (z-score),[22],-0.537
same,glycan array binding signal (z-score),[23],-0.03
same,glycan array binding signal (z-score),[24],0.494
same,glycan array binding signal (z-score),[25],0.001
same,glycan array binding signal (z-score),[26],-0.266
same,glycan array binding signal (z-score),[27],-0.797
same,glycan array binding signal (z-score),[28],0.717
same,glycan array binding signal (z-score),[29],0.348
same,glycan array binding signal (z-score),[30],1.88
same,glycan array binding signal (z-score),[31],0.251
same,glycan array binding signal (z-score),[32],-0.421
same,glycan array binding signal (z-score),[33],-0.549
same,glycan array binding signal (z-score),[34],0.526
same,glycan array binding signal (z-score),[35],0.336
same,glycan array binding signal (z-score),[36],-0.521
same,glycan array binding signal (z-score),[37],0.354
same,glycan array binding signal (z-score),[38],0.372
same,glycan array binding signal (z-score),[39],-0.498
same,glycan array binding signal (z-score),[40],-0.634
same,glycan array binding signal (z-score),[41],-0.184
same,glycan array binding signal (z-score),[42],-0.675
same,glycan array binding signal (z-score),[43],0.32
